The values below come from the supplement of paper PMC8728848.

The other results are listed elsewhere or left out.

What all share (test): glycan array binding signal (z-score within array); higher = stronger binding
What all share (conditions): glycan notation: IUPAC condensed, linker removed

In test [1] the target is Fuc(a1-2)Gal(b1-3)[Fuc(a1-4)]GlcNAc(b1-3)[Fuc(a1-3)[Gal(b1-4)]GlcNAc(b1-6)]Gal(b1-4)Glc. Summed up:
(§1)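 The Consortium for Functional Glycomics database supplied 3228 glycan arrays, of which those lacking an available protein sequence were dropped. The binding signal, a within-array Z-score, was averaged across arrays of the same protein sequence and across linkers. Negative scores can be read as non-binding.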

For test [2], the target named is Fuc(a1-2)Gal(b1-3)[Fuc(a1-4)]GlcNAc(b1-3)[Gal(b1-4)GlcNAc(b1-6)]Gal(b1-4)Glc. Summed up: as §1
Test [3] has as its target Fuc(a1-2)Gal(b1-4)Fuc(a1-3)]GlcNAc(b1-2)Man(a1-3)[Fuc(a1-2)Gal(b1-4)[Fuc(a1-3)]GlcNAc(b1-2)Man(a1-6)]Man(b1-4)GlcNAc(b1-4)GlcNAc. Summed up:
as §1

For another test, the target named is Fuc(a1-2)Gal(b1-4)Glc. Summed up:
as §1

The target of another test is Fuc(a1-2)Gal(b1-4)Glc6S. The method, boiled down: as §1
The target in another test is Fuc(a1-2)Gal(b1-4)GlcNAc. Summed up: as §1
Test [4] concerns the target Fuc(a1-2)Gal(b1-4)GlcNAc(b1-2)Man. The method, boiled down: as §1
The target in test [5] is Fuc(a1-2)Gal(b1-4)GlcNAc(b1-2)Man(a1-3)[Fuc(a1-2)Gal(b1-4)GlcNAc(b1-2)Man(a1-6)]Man(b1-4)GlcNAc(b1-4)GlcNAc. Summed up: as §1
Test [6] concerns the target Fuc(a1-2)Gal(b1-4)GlcNAc(b1-2)Man(a1-3)[Fuc(a1-2)Gal(b1-4)GlcNAc(b1-2)Man(a1-6)]Man(b1-4)GlcNAc(b1-4)[Fuc(a1-6)]GlcNAc. The method, boiled down:
as §1

Test [7] addresses Fuc(a1-2)Gal(b1-4)GlcNAc(b1-2)[Fuc(a1-2)Gal(b1-4)GlcNAc(b1-4)]Man(a1-3)[Fuc(a1-2)Gal(b1-4)GlcNAc(b1-2)Man(a1-6)]Man(b1-4)GlcNAc(b1-4)GlcNAc. The method, boiled down: as §1
In test [8] the target is Fuc(a1-2)Gal(b1-4)GlcNAc(b1-3)Gal(b1-4)GlcNAc. The method, boiled down: as §1
Test [9] concerns the target Fuc(a1-2)Gal(b1-4)GlcNAc(b1-3)Gal(b1-4)GlcNAc(b1-2)Man(a1-3)[Fuc(a1-2)Gal(b1-4)GlcNAc(b1-3)Gal(b1-4)GlcNAc(b1-2)Man(a1-6)]Man(b1-4)GlcNAc(b1-4)GlcNAc. Summed up:
as §1

Test [10] has as its target Fuc(a1-2)Gal(b1-4)GlcNAc(b1-3)Gal(b1-4)GlcNAc(b1-3)Gal(b1-4)GlcNAc. The method, boiled down: as §1
The target of test [11] is Fuc(a1-2)Gal(b1-4)GlcNAc(b1-3)GalNAc. The method, boiled down:
as §1

Test [12] has as its target Fuc(a1-2)Gal(b1-4)GlcNAc(b1-3)[Fuc(a1-2)Gal(b1-4)GlcNAc(b1-6)]GalNAc. The method, boiled down: as §1
In test [13] the target is Fuc(a1-2)Gal(b1-4)GlcNAc(b1-3)[Fuc(a1-3)[Gal(b1-4)]GlcNAc(b1-6)]Gal(b1-4)Glc. The method, boiled down: as §1
The target in test [14] is Fuc(a1-2)Gal(b1-4)GlcNAc(b1-6)GalNAc. The method, boiled down:
as §1

In test [15] the target is Fuc(a1-2)Gal(b1-4)GlcNAc6S. Summed up:
as §1

Test [16] concerns the target Fuc(a1-2)Gal(b1-4)[Fuc(a1-3)]GlcNAc. The method, boiled down: as §1
The target of test [17] is Fuc(a1-2)Gal(b1-4)[Fuc(a1-3)]GlcNAc(b1-2)Man(a1-3)[Fuc(a1-2)Gal(b1-4)[Fuc(a1-3)]GlcNAc(b1-2)Man(a1-6)]Man(b1-4)GlcNAc(b1-4)GlcNAc. Summed up: as §1
Test [18] has as its target Fuc(a1-2)Gal(b1-4)[Fuc(a1-3)]GlcNAc(b1-2)Man(a1-3)[Fuc(a1-2)Gal(b1-4)[Fuc(a1-3)]GlcNAc(b1-2)Man(a1-6)]Man(b1-4)GlcNAc(b1-4)[Fuc(a1-6)]GlcNAc. Summed up: as §1
For test [19], the target named is Fuc(a1-2)Gal(b1-4)[Fuc(a1-3)]GlcNAc(b1-2)Man(a1-6)[Fuc(a1-2)Gal(b1-4)[Fuc(a1-3)]GlcNAc(b1-2)Man(a1-3)]Man(b1-4)GlcNAc(b1-4)[Fuc(a1-6)]GlcNAc. The method, boiled down:
as §1

Test [20] addresses Fuc(a1-2)Gal(b1-4)[Fuc(a1-3)]GlcNAc(b1-2)[Fuc(a1-2)Gal(b1-4)[Fuc(a1-3)]GlcNAc(b1-4)]Man(a1-3)[Fuc(a1-2)Gal(b1-4)[Fuc(a1-3)]GlcNAc(b1-2)Man(a1-6)]Man(b1-4)GlcNAc(b1-4)GlcNAc. Summed up:
as §1

B1: Siglec-7-SA-PE-180 (Homo sapiens), Q9Y286 (protein)
chain: MLLLLLLPLLWGRERVEGQKSNRKDYSLTMQSSVTVQEGMCVHVRCSFSYPVDSQTDSDPVHGYWFRAGNDISWKAPVATNNPAWAVQEETRDRFHLLGDPQTKNCTLSIRDARMSDAGRYFFRMEKGNIKWNYKYDQLSVNVTALTHRPNILIPGTLESGCFQNLTCSVPWACEQGTPPMISWMGTSVSPLHPSTTRSSVLTLIPQPQHHGTSLTCQVTLPGAGVTTNRTIQLNVSYPPQNLTVTVFQGEGTASTALGNSSSLSVLEGQSLRLVCAVDSNPPARLSWTWRSLTLYPSQPSNPLVLELQVHLGDEGEFTCRAQNSLGSQHVSLNLSLQQEYTGKMRPVSGVLLGAVGGAGATALVFLSFCVIFIVVRSCRKKSARPAADVGDIGMKDANTIRGSASQGNLTESWADDNPRHHGLAAHSSGEEREIQYAPLSFHKGEPQDLSGQEATNNEYSEIKIPK
As for B1, the “glycan array binding signal (z-score)” value in [1] is -0.177; in test [2], -0.392; in test [3], 0.426; in the test with Fuc(a1-2)Gal(b1-4)Glc, -0.474; with Fuc(a1-2)Gal(b1-4)Glc6S, 0.053; with Fuc(a1-2)Gal(b1-4)GlcNAc, -0.302. Moreover, the “glycan array binding signal (z-score)” value was 0.028 in test [4]; -0.13 in [5]; -0.228 in [6]; -0.374 in test [7]; -0.204 in test [8]; 0.796 in test [9]. In addition, the “glycan array binding signal (z-score)” value in [10] was -0.428; in test [11], -0.106; in [12] it was -0.204; in test [13], -0.525; in test [14] it was -0.066; in [15], 0.151. In addition, the “glycan array binding signal (z-score)” value was -0.361 in [16]; -0.133 in test [17]; -0.011 in [18]; -0.132 in [19]; 0.051 in test [20].
